Test results: EPA's CvTdb concentration-time database

What was measured:
[1] = system: Mouse; assay: concentration in plasma after dosing; conditions: 2 h; dosed: Benzophenone; 15 mg/kg; iv; Female; B6C3F1
[2] = system: Mouse; assay: concentration in plasma after dosing; conditions: 4 h; dosed: Benzophenone; 15 mg/kg; oral; Female; B6C3F1
[3] = system: Rat; assay: concentration in blood after dosing; conditions: 10 min; dosed: Benzophenone; 10 mg/kg; oral; Female; F344
[4] = system: Mouse; assay: concentration in plasma after dosing; conditions: 6 h; dosed: Benzophenone; 15 mg/kg; oral; Male; B6C3F1
[5] = system: Mouse; assay: concentration in plasma after dosing; conditions: 1.5 h; dosed: Benzophenone; 15 mg/kg; iv; Female; B6C3F1
[6] = system: Rat; assay: concentration in blood after dosing; conditions: 0.25 h; dosed: Benzophenone; 5 mg/kg; oral; Male; F344
[7] = system: Mouse; assay: concentration in plasma after dosing; conditions: 5 min; dosed: Benzophenone; 15 mg/kg; oral; Female; B6C3F1
[8] = system: Rat; assay: concentration in blood after dosing; conditions: 10 min; dosed: Benzophenone; 10 mg/kg; oral; Male; F344
[9] = system: Mouse; assay: concentration in plasma after dosing; conditions: 3 h; dosed: Benzophenone; 60 mg/kg; oral; Male; B6C3F1
[10] = system: Mouse; assay: concentration in plasma after dosing; conditions: 2.5 min; dosed: Benzophenone; 60 mg/kg; oral; Female; B6C3F1
[11] = system: Rat; assay: concentration in blood after dosing; conditions: 0.25 h; dosed: Benzophenone; 10 mg/kg; oral; Female; F344
[12] = system: Mouse; assay: concentration in plasma after dosing; conditions: 1 h; dosed: Benzophenone; 15 mg/kg; iv; Female; B6C3F1
[13] = system: Mouse; assay: concentration in plasma after dosing; conditions: 2.5 min; dosed: Benzophenone; 15 mg/kg; oral; Female; B6C3F1
[14] = system: Rat; assay: concentration in blood after dosing; conditions: dosed: Benzophenone, oral, F344
[15] = system: Rat; assay: concentration in blood after dosing; conditions: 5 min; dosed: Benzophenone; 10 mg/kg; oral; Male; F344
[16] = system: Mouse; assay: concentration in plasma after dosing; conditions: 0.25 h; dosed: Benzophenone; 15 mg/kg; oral; Female; B6C3F1
[17] = system: Rat; assay: concentration in plasma after dosing; conditions: dosed: Benzophenone, 10 mg/kg, oral, Male, F344
[18] = system: Mouse; assay: concentration in plasma after dosing; conditions: 2.5 min; dosed: Benzophenone; 30 mg/kg; oral; Female; B6C3F1
[19] = system: Rat; assay: concentration in plasma after dosing; conditions: dosed: Benzophenone, 5 mg/kg, oral, Female, F344
[20] = system: Mouse; assay: concentration in plasma after dosing; conditions: 2.5 min; dosed: Benzophenone; 30 mg/kg; oral; Male; B6C3F1
[21] = system: Mouse; assay: concentration in plasma after dosing; conditions: 0.25 h; dosed: Benzophenone; 30 mg/kg; oral; Male; B6C3F1
[22] = system: Mouse; assay: concentration in plasma after dosing; conditions: 2 h; dosed: Benzophenone; 30 mg/kg; oral; Male; B6C3F1
[23] = system: Rat; assay: concentration in blood after dosing; conditions: 10 min; dosed: Benzophenone; 5 mg/kg; oral; Male; F344
[24] = system: Rat; assay: concentration in plasma after dosing; conditions: dosed: Benzophenone, 5 mg/kg, oral, Female, F344; remark: listed apart in the source
[25] = system: Mouse; assay: concentration in plasma after dosing; conditions: 1 h; dosed: Benzophenone; 30 mg/kg; oral; Female; B6C3F1
[26] = system: Mouse; assay: concentration in plasma after dosing; conditions: 1.5 h; dosed: Benzophenone; 30 mg/kg; oral; Male; B6C3F1
[27] = system: Rat; assay: concentration in plasma after dosing; conditions: dosed: Benzophenone, 5 mg/kg, oral, Male, F344
[28] = system: Rat; assay: concentration in blood after dosing; conditions: 0.5 h; dosed: Benzophenone; 5 mg/kg; oral; Female; F344
[29] = system: Mouse; assay: concentration in plasma after dosing; conditions: 20 min; dosed: Benzophenone; 15 mg/kg; iv; Female; B6C3F1
[30] = system: Mouse; assay: concentration in plasma after dosing; conditions: 2.5 h; dosed: Benzophenone; 15 mg/kg; iv; Male; B6C3F1
[31] = system: Rat; assay: concentration in blood after dosing; conditions: 0.125 h; dosed: Benzophenone; 10 mg/kg; oral; Female; F344
[32] = system: Mouse; assay: concentration in plasma after dosing; conditions: 2.5 h; dosed: Benzophenone; 15 mg/kg; iv; Female; B6C3F1
[33] = system: Mouse; assay: concentration in plasma after dosing; conditions: 0.125 h; dosed: Benzophenone; 30 mg/kg; oral; Male; B6C3F1
[34] = system: Mouse; assay: concentration in plasma after dosing; conditions: 3 h; dosed: Benzophenone; 15 mg/kg; iv; Male; B6C3F1
[35] = system: Mouse; assay: concentration in plasma after dosing; conditions: 0.25 h; dosed: Benzophenone; 60 mg/kg; oral; Male; B6C3F1
[36] = system: Mouse; assay: concentration in plasma after dosing; conditions: 2.5 min; dosed: Benzophenone; 15 mg/kg; oral; Female; B6C3F1; remark: listed apart in the source
[37] = system: Mouse; assay: concentration in plasma after dosing; conditions: 0.75 h; dosed: Benzophenone; 15 mg/kg; oral; Female; B6C3F1

O=C(c1ccccc1)c1ccccc1 [Benzophenone]
Conditions | concentration in blood [ng/mL] | concentration in plasma [ng/mL]
[1] | – | 97.9
[2] | – | 33.7
[3] | 1520 | –
[4] | – | 15.1
[5] | – | 213
[6] | 841 | –
[7] | – | 597
[8] | 561 | –
[9] | – | 121
[10] | – | 376
[11] | 1610 | –
[12] | – | 377
[13] | – | 63.8
[15] | 1810 | –
[16] | – | 2680
[18] | – | 1340
[20] | – | 1590
[21] | – | 990
[22] | – | 121
[23] | 466 | –
[25] | – | 417
[26] | – | 207
[28] | 630 | –
[29] | – | 1610
[30] | – | 43.1
[31] | 2130 | –
[32] | – | 46.2
[33] | – | 1820
[34] | – | 175
[35] | – | 2350
[36] | – | 227
[37] | – | 222

concentration in blood [ng/mL], [14]
Conditions | 0.125 h | 0.25 h | 0.5 h | 5 min | 10 min
5 mg/kg, Female | 689 | 843 | 928 | 597 | 647
5 mg/kg, Male | 517 | 1010 | 427 | 212 | 486
10 mg/kg, Female | 1590 | 1000 | 1890 | 1900 | 1010
10 mg/kg, Male | 1030 | 804 | 1120 | 1410 | 1840

Conditions | concentration in plasma [ng/mL]
[17], 0.25 h | 270
[17], 24 h | 46.4
[19], 2 h | 57.9
[19], 5 min | 101
[24], 0.5 h | 220
[24], 10 h | 58.5
[27], 1 h | 144
[27], 2.5 min | 34.3
